Molecular target: T1, GST-DX2 (human, UniProt Q13155-2 1-251)
T1 construct: AIMP2-DX2 (DX2), splicing variant of human AIMP2 that lacks exon II; also called purified GST-DX2; source: purified
T1 sequence (looked up): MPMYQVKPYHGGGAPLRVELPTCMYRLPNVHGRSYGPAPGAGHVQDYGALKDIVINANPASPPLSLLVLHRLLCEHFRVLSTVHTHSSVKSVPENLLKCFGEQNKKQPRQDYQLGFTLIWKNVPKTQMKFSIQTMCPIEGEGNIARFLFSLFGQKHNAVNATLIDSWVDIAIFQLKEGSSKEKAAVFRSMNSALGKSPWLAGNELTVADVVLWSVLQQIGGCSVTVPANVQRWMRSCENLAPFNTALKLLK
Test: pull-down; in vitro pull-down with purified GST-DX2 and purified RAS proteins (native or farnesylated in vitro); immunoblot with anti-pan RAS antibody
Details: both partners purified

binding result: binds
B1: KRAS4A protein (native) (natural protein)
chain: not shown
notes: KRAS4A; also called native KRAS4A

Reference: publication PMC9095880, “AIMP2-DX2 provides therapeutic interface to control KRAS-driven tumorigenesis” (Nature Communications, 2022)
